The supplement of paper PMC8007513
Where a name gives a salt, the structure may show the parent alone. ± gives the standard error. The whole screen tested about 1,300 compounds, of which about 130 (10%) showed an effect of 50% or more. The entries are a selection whose mix differs from that of the whole data set.

Tested on: Trichoderma virens ATCC 9645
Experiment: growth yield (OD600) with compound + IPBC relative to untreated control; higher = less growth inhibition
Settings: compound concentration: 100 uM, IPBC concentration: 200 ng/ml
Summary of the method: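 Trichoderma virens ATCC 9645 spores, from potato dextrose agar plates grown for 7 days, were brought to 15,000 spores ml^−1 in potato dextrose broth and dispensed as 100 μl aliquots into 96-well plates. Each aliquot received library compounds at 100 μM final, with or without a biocide at 200 ng ml^−1, before growth at 30 °C and OD600 readings on a BioTek EL800 at 40 h and 72 h. Growth is expressed relative to the control containing neither agent and represents means of duplicate screens.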

For CCN(CC)C(=O)c1ccc(O)c(OC)c1 [Ethamivan] + CCCCNC(=O)OCC#CI [3-iodo-2-propynyl butylcarbamate (IPBC)], which growth yield (40 h) is on record?
The growth yield was 87.8 ± 2.4%.

And the growth yield (72 h)?
The growth yield was 92.6 ± 3.2%.

Which results are given for CCC(C)(C)C(=O)O[C@H]1C[C@@H](C)C=C2C=C[C@H](C)[C@H](CC[C@@H]3C[C@@H](O)CC(=O)O3)[C@H]21 [Simvastatin] + CCCCNC(=O)OCC#CI [3-iodo-2-propynyl butylcarbamate (IPBC)]?
growth yield (40 h): 104 ± 5.4%; growth yield (72 h): 99.8 ± 3.6%

With CCCc1nn(C)c2c(=O)[nH]c(-c3cc(S(=O)(=O)N4CCN(C)CC4)ccc3OCC)nc12 [Sildenafil] + CCCCNC(=O)OCC#CI [3-iodo-2-propynyl butylcarbamate (IPBC)] as the compound, how does the growth yield (40 h) read?
The growth yield was 89.1 ± 3.6%.

What about the growth yield (72 h) of the same compound?
Its growth yield is 92.3 ± 2.9%.

Which growth yield (40 h) does the source give for CCCNC(C)(C)COC(=O)c1ccccc1 [Meprylcaine hydrochloride] + CCCCNC(=O)OCC#CI [3-iodo-2-propynyl butylcarbamate (IPBC)] here?
Its growth yield is 87.7 ± 7.6%.

What about the growth yield (72 h) of the same compound?
Its growth yield is 91.8 ± 5.1%.

Which growth yield (40 h) does the source give for c1ccc2c(c1)Nc1ccccc1S2 [Phenothiazine] + CCCCNC(=O)OCC#CI [3-iodo-2-propynyl butylcarbamate (IPBC)] here?
The growth yield was 34.8 ± 2.7%.

With C[N+](C)(CCOc1ccccc1)Cc1ccccc1.O=C([O-])c1cc2ccccc2cc1O [Bephenium hydroxynaphthoate] + CCCCNC(=O)OCC#CI [3-iodo-2-propynyl butylcarbamate (IPBC)] as the compound, how does the growth yield (40 h) read?
Its growth yield is 63.5%.

What about the growth yield (72 h) of the same compound?
Its growth yield is 85.3 ± 2.4%.

With NC1CCN(c2c(F)cc3c(=O)c(C(=O)O)cn(C4CC4)c3c2Cl)C1 (stereo not given) [Clinafloxacin] + CCCCNC(=O)OCC#CI [3-iodo-2-propynyl butylcarbamate (IPBC)] as the compound, how does the growth yield (40 h) read?
Its growth yield is 87.8 ± 6.8%.

And the growth yield (72 h)?
The growth yield was 90.4 ± 3.1%.

CCc1nn(CCCN2CCN(c3cccc(Cl)c3)CC2)c(=O)n1CCOc1ccccc1 [Nefazodone hydrochloride] + CCCCNC(=O)OCC#CI [3-iodo-2-propynyl butylcarbamate (IPBC)] was tested. Which growth yield (40 h) did it give?
Its growth yield is 58.6 ± 1.1%.

What about the growth yield (72 h) of the same compound?
Its growth yield is 97.22 ± 0.73%.

How did the growth yield (40 h) turn out when OCCN1CCN(CC/C=C2/c3ccccc3Sc3ccc(Cl)cc32)CC1 [Zuclopenthixol dihydrochloride] + CCCCNC(=O)OCC#CI [3-iodo-2-propynyl butylcarbamate (IPBC)] was run?
Its growth yield is 4.92 ± 0.16%.

What about the growth yield (72 h) of the same compound?
Its growth yield is 3.57 ± 0.21%.

Which results are given for Nc1ccc(/N=N/c2ccccc2)c(N)n1 [Phenazopyridine hydrochloride] + CCCCNC(=O)OCC#CI [3-iodo-2-propynyl butylcarbamate (IPBC)]?
growth yield (40 h): 7.15 ± 0.48%; growth yield (72 h): 13.5 ± 1.8%

With CN(C)CCOC(=O)C(c1ccccc1)C1(O)CCCC1 (stereo not given) [Cyclopentolate hydrochloride] + CCCCNC(=O)OCC#CI [3-iodo-2-propynyl butylcarbamate (IPBC)] as the compound, how does the growth yield (40 h) read?
The growth yield was 83.7 ± 3%.

What about the growth yield (72 h) of the same compound?
The growth yield was 87.7 ± 2.1%.

With O=C(O)c1ccccc1Nc1cccc(C(F)(F)F)c1 [Flufenamic acid] + CCCCNC(=O)OCC#CI [3-iodo-2-propynyl butylcarbamate (IPBC)] as the compound, how does the growth yield (40 h) read?
Its growth yield is 29.1 ± 2.1%.

Which growth yield (40 h) does the source give for CC[N+](C)(CC)CCC[n+]1c(-c2ccccc2)c2cc(N)ccc2c2ccc(N)cc21 [Propidium iodide] + CCCCNC(=O)OCC#CI [3-iodo-2-propynyl butylcarbamate (IPBC)] here?
The growth yield was 8.1 ± 5.6%.

What about the growth yield (72 h) of the same compound?
Its growth yield is 12.7 ± 0.32%.

How did the growth yield (40 h) turn out when Clc1ccc(C(c2ccccc2Cl)C(Cl)Cl)cc1 (stereo not given) [Mitotane] + CCCCNC(=O)OCC#CI [3-iodo-2-propynyl butylcarbamate (IPBC)] was run?
Its growth yield is 71.6 ± 1.1%.

What about the growth yield (72 h) of the same compound?
Its growth yield is 85.5 ± 0.94%.

With O=C1O[C@H]([C@@H](O)CO)C(O)=C1O [Ascorbic acid] + CCCCNC(=O)OCC#CI [3-iodo-2-propynyl butylcarbamate (IPBC)] as the compound, how does the growth yield (40 h) read?
The growth yield was 92.1 ± 0.95%.

What about the growth yield (72 h) of the same compound?
Its growth yield is 96.28 ± 0.63%.

Which results are given for Cc1cccc(C)c1OCC(=O)N[C@@H](Cc1ccccc1)[C@@H](O)C[C@H](Cc1ccccc1)NC(=O)[C@H](C(C)C)N1CCCNC1=O [Lopinavir] + CCCCNC(=O)OCC#CI [3-iodo-2-propynyl butylcarbamate (IPBC)]?
growth yield (40 h): 108 ± 5.4%; growth yield (72 h): 111 ± 5.1%

For Nc1ccc(C(=O)O)c(O)c1 [4-aminosalicylic acid] + CCCCNC(=O)OCC#CI [3-iodo-2-propynyl butylcarbamate (IPBC)], which growth yield (40 h) is on record?
The growth yield was 87.36 ± 0.32%.

And the growth yield (72 h)?
Its growth yield is 94.18 ± 0.42%.

With O=C1Nc2ccc(Cl)cc2[C@@](C#CC2CC2)(C(F)(F)F)O1 [Efavirenz] + CCCCNC(=O)OCC#CI [3-iodo-2-propynyl butylcarbamate (IPBC)] as the compound, how does the growth yield (40 h) read?
The growth yield was 39.4 ± 2.9%.

With O=C1c2cccc(O)c2C(=O)c2c(O)cccc21 [1,8-Dihydroxyanthraquinone] + CCCCNC(=O)OCC#CI [3-iodo-2-propynyl butylcarbamate (IPBC)] as the compound, how does the growth yield (40 h) read?
The growth yield was 55.12 ± 0.16%.

What about the growth yield (72 h) of the same compound?
Its growth yield is 77.2 ± 1.9%.

For CCN(CC)CCNC(=O)c1cc(Br)c(N)cc1OC [Bromopride] + CCCCNC(=O)OCC#CI [3-iodo-2-propynyl butylcarbamate (IPBC)], which growth yield (40 h) is on record?
The growth yield was 92.6 ± 14%.

What about the growth yield (72 h) of the same compound?
The growth yield was 93.8 ± 7.5%.

CCCCC(=O)N(Cc1ccc(-c2ccccc2-c2nnn[nH]2)cc1)[C@H](C(=O)O)C(C)C [Valsartan] + CCCCNC(=O)OCC#CI [3-iodo-2-propynyl butylcarbamate (IPBC)] was tested. Which growth yield (40 h) did it give?
Its growth yield is 95.3 ± 8.9%.

What about the growth yield (72 h) of the same compound?
The growth yield was 101 ± 7.7%.

What does the source list for OC(CCN1CCCCC1)(c1ccccc1)c1ccccc1 [Pridinol methanesulfonate salt] + CCCCNC(=O)OCC#CI [3-iodo-2-propynyl butylcarbamate (IPBC)]?
growth yield (40 h): 94.2 ± 4.3%; growth yield (72 h): 94.1 ± 2.2%

For C[C@H](CCC(=O)O)[C@H]1CC[C@H]2[C@@H]3C(=O)C[C@@H]4CC(=O)CC[C@]4(C)[C@H]3CC(=O)[C@]12C [Dehydrocholic acid] + CCCCNC(=O)OCC#CI [3-iodo-2-propynyl butylcarbamate (IPBC)], which growth yield (40 h) is on record?
Its growth yield is 95.5 ± 9.1%.

And the growth yield (72 h)?
Its growth yield is 97.3 ± 4%.

How did the growth yield (40 h) turn out when CC(=O)O[C@H]1C[C@@H]2CC[C@@H]3[C@H](CC[C@@]4(C)[C@H]3C[C@H]([N+]3(C)CCCCC3)[C@@H]4OC(C)=O)[C@@]2(C)C[C@@H]1[N+]1(C)CCCCC1 [Pancuronium bromide] + CCCCNC(=O)OCC#CI [3-iodo-2-propynyl butylcarbamate (IPBC)] was run?
Its growth yield is 80.2 ± 4%.

What about the growth yield (72 h) of the same compound?
The growth yield was 86.21 ± 0.21%.

What does the source list for O=C1c2c(O)ccc(O)c2C(=O)c2c(NCCNCCO)ccc(NCCNCCO)c21 [Mitoxantrone dihydrochloride] + CCCCNC(=O)OCC#CI [3-iodo-2-propynyl butylcarbamate (IPBC)]?
growth yield (40 h): 1.27 ± 1.3%; growth yield (72 h): 0%

For O=C(NC(Cc1cc(=O)[nH]c2ccccc12)C(=O)O)c1ccc(Cl)cc1 (stereo not given) [Rebamipide] + CCCCNC(=O)OCC#CI [3-iodo-2-propynyl butylcarbamate (IPBC)], which growth yield (40 h) is on record?
Its growth yield is 89.7 ± 5.6%.

What about the growth yield (72 h) of the same compound?
Its growth yield is 91.9 ± 3.1%.

For C[N+](C)(C)CCOC(N)=O [Carbachol] + CCCCNC(=O)OCC#CI [3-iodo-2-propynyl butylcarbamate (IPBC)], which growth yield (40 h) is on record?
The growth yield was 100 ± 14%.

What about the growth yield (72 h) of the same compound?
Its growth yield is 97.1 ± 7.3%.

How did the growth yield (40 h) turn out when CC(C)(C)NC[C@H](O)COc1cccc2c1CCCC2=O [(-) -Levobunolol hydrochloride] + CCCCNC(=O)OCC#CI [3-iodo-2-propynyl butylcarbamate (IPBC)] was run?
The growth yield was 97.8 ± 16%.

And the growth yield (72 h)?
Its growth yield is 99.2 ± 11%.

What does the source list for Nc1ncn(C2OC(CO)C(O)C2O)c(=O)n1 (stereo not given) [Azacytidine-5] + CCCCNC(=O)OCC#CI [3-iodo-2-propynyl butylcarbamate (IPBC)]?
growth yield (40 h): 67.2 ± 3%; growth yield (72 h): 91.9 ± 1.1%

Which growth yield (40 h) does the source give for N[C@@H](Cc1ccc(O)c(O)c1)C(=O)O [Levodopa] + CCCCNC(=O)OCC#CI [3-iodo-2-propynyl butylcarbamate (IPBC)] here?
Its growth yield is 87.4 ± 0.95%.

And the growth yield (72 h)?
Its growth yield is 89.98 ± 0.63%.

Which growth yield (40 h) does the source give for COc1ccc(-c2ccc3cc(C(=O)O)ccc3c2)cc1C12CC3CC(CC(C3)C1)C2 [Adapalene] + CCCCNC(=O)OCC#CI [3-iodo-2-propynyl butylcarbamate (IPBC)] here?
The growth yield was 91.5 ± 1.6%.

What about the growth yield (72 h) of the same compound?
Its growth yield is 92.9 ± 1.7%.

For CCCC(C)C1(CC)C(=O)NC(=O)NC1=O (stereo not given) [Pentobarbital] + CCCCNC(=O)OCC#CI [3-iodo-2-propynyl butylcarbamate (IPBC)], which growth yield (40 h) is on record?
The growth yield was 87.4 ± 2.9%.

And the growth yield (72 h)?
The growth yield was 94.2 ± 2.7%.

Which growth yield (40 h) does the source give for CCCCc1oc2ccccc2c1C(=O)c1cc(I)c(OCCN(CC)CC)c(I)c1 [Amiodarone hydrochloride] + CCCCNC(=O)OCC#CI [3-iodo-2-propynyl butylcarbamate (IPBC)] here?
The growth yield was 2.06 ± 0.16%.

And the growth yield (72 h)?
Its growth yield is 2.41 ± 0.1%.

How did the growth yield (40 h) turn out when Cc1cccc(N(C)C(=S)Oc2ccc3ccccc3c2)c1 [Tolnaftate] + CCCCNC(=O)OCC#CI [3-iodo-2-propynyl butylcarbamate (IPBC)] was run?
Its growth yield is 0%.

And the growth yield (72 h)?
Its growth yield is 35.9 ± 0.84%.

How did the growth yield (40 h) turn out when CC1(C)O[C@@H]2C[C@H]3[C@@H]4C[C@H](F)C5=CC(=O)CC[C@]5(C)[C@H]4[C@@H](O)C[C@]3(C)[C@]2(C(=O)CO)O1 [Flurandrenolide] + CCCCNC(=O)OCC#CI [3-iodo-2-propynyl butylcarbamate (IPBC)] was run?
Its growth yield is 89.6 ± 2.9%.

What about the growth yield (72 h) of the same compound?
Its growth yield is 92.1 ± 2.1%.

With NNC(=O)c1ccncc1 [Isoniazid] + CCCCNC(=O)OCC#CI [3-iodo-2-propynyl butylcarbamate (IPBC)] as the compound, how does the growth yield (40 h) read?
The growth yield was 110 ± 1.6%.

What about the growth yield (72 h) of the same compound?
Its growth yield is 111 ± 3.6%.

CCN(CC)CCN[C@@H](C(=O)OCCC(C)C)c1ccccc1 [Camylofine chlorhydrate] + CCCCNC(=O)OCC#CI [3-iodo-2-propynyl butylcarbamate (IPBC)] was tested. Which growth yield (40 h) did it give?
Its growth yield is 81.01 ± 0.64%.

What about the growth yield (72 h) of the same compound?
Its growth yield is 88.52 ± 0.84%.

Which growth yield (40 h) does the source give for CN1CCCN=C1/C=C/c1cccs1 [Pyrantel tartrate] + CCCCNC(=O)OCC#CI [3-iodo-2-propynyl butylcarbamate (IPBC)] here?
Its growth yield is 96.6 ± 8.3%.

And the growth yield (72 h)?
The growth yield was 101 ± 4.3%.

Which results are given for C#C[C@]1(O)CC[C@H]2[C@@H]3CCC4=Cc5oncc5C[C@]4(C)[C@H]3CC[C@@]21C [Danazol] + CCCCNC(=O)OCC#CI [3-iodo-2-propynyl butylcarbamate (IPBC)]?
growth yield (40 h): 82 ± 12%; growth yield (72 h): 96.4 ± 9.5%
